Measurements taken from a collection of fitness landscapes (doi:10.1016/j.celrep.2020.107928).
Whole data set: some 81,000 sequences, median “one-hybrid fitness for binding NBS DNA” near -0.1, cut for the highest 2% near 0.36. This is one part of the list.

B1: Caulobacter ParB omega fusion; a variant is named by its letters at X, in order, B8GW30 (parent)
chain: MESVVVGEPGMSEGRRGLGRGLSALLGEVDAAPAQAPGEQLGGSREAPIEILQRNPDQPRRTFREEDLEDLSNSIREKGVLQPILVRPSPDTAGEYQIVAGERAWRAAQRAGLKTVPIMVRELDDLAVLEIGIIENVQRADLNVLEEALSYKVLMEKFERTQENIAQTIGKSXSHVANXMRLLXLPDEVQSYLVSGELTAXHARAIAAAADPVALAKQIIEGGLSVRETEALARKAPNLSAGKSKGGRPPRVKDTDTQALESDLSSVLGLDVSIDHRGSTGTLTITYATLEQLDDLCNRLTRGI

Variants of: B1
Assay: one-hybrid fitness for binding NBS DNA (the Noc-binding site; scaled: cognate 1, non-cognate 0); higher = stronger binding
Settings: with NBS DNA site
Outline: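 Pre- and post-selection plasmids were Illumina-sequenced, three replicate libraries were pooled, and any variant with under 10 reads was removed. The libraries were Caulobacter ParB with four specificity codons randomised, selected in E. coli USO through a HIS3 reporter whose site is 19 bp from the promoter. Cells grew 48 hours at 37°C on M9 without histidine, with 0.1 mM IPTG and 5 mM 3-AT. Fitness is the log change in variant-to-wild-type read ratio, rescaled against cognate and non-cognate.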

one-hybrid fitness for binding NBS DNA, 0.225:
QIQS

one-hybrid fitness for binding NBS DNA, 0.435:
QQFT

one-hybrid fitness for binding NBS DNA, 0.335:
RCVS

one-hybrid fitness for binding NBS DNA, 0.238:
QHKW

one-hybrid fitness for binding NBS DNA, 0.207:
RAIR

one-hybrid fitness for binding NBS DNA, ≤ 0.2:
GSSI
ILFE
LVRE
WQLM
PSEV
WIVC
VRAP
QEQG
PITL
TAIR
WGTT
SGRV
CIYS
MLNV
YTHP
KSTM
KTHS
HHAF
RMNQ
QPSK
VVPC
VNTT
SRFS
FKHR
CADN
NNFS
NNRS
QLTQ
HAWY
AGIW
LRFS
ELCT
FWHS
GTKY
KYIS
IAAC
MRWL
RHPT
TDNM
RPYK
WQNE
AWFT
LHRM
NLKI
LILW
RVFK
CKET
NYSS
QEDG
IYDI
HTNV
WTNT
ANTV
KEIV
CAGY
TLPK
WHLC
CVIV
VYVT
STAG
IYTS
MPHT
GVQC
KFDR
MSAP
GKSR
FSEF
AFPE
NSCL
AHNE
PFTS
TSDE
TFEE
SQKA
PKME
DKDK
HLSA
TCQL
GFNG
TADR
STDK
KYCC
YDGC
DDKR
YDNC
AASD
LFRC
PKPI
HPYG
TDMR
QNQS
VWVK
DRYW
WPAC
LRHQ
VRNG
ACGG
RNHM
VNLT
RCQG
WCPS
YLES
PLPC
MDPL
NMTG
LRTC
NPND
QGNA
QFAT
QNQM
ASYR
RMFY
IGAF
HGIS
VILC
ANCG
ASYV
LNYL
EPIC
PAFC
QTYK
VGKS
AYFC
HRND
KVKY
SHRA
MDRC
SSHD
PPHY
PQSK
PYMC
FPNR
GQHR
SGID
NPIP
GHRG
STTY
GAPN
MQAL
QRPY
TTWM
TYTA
TINC
GEDA
TSLE
VMFC
NMMC
TAAD
GFPT
RPAD
TTEK
CGGG
AYRY
RLIP
TKEG
CKAI
WYGN
PIRQ
QLVC
RSAQ
GTLN
IFVE
HLDI
SVDF
EKYS
YLTC
QIDV
WGTR
SFTW
LNFR
MARI
MTGN
PYIS
GMLS
LDLL
WKPK
PLHW
WYPV
QVTI
VSMI
DNFC
HDEG
GAYA
SETC
HHKQ
YYLW
GPHK
SYTT

one-hybrid fitness for binding NBS DNA, 0.206:
RRIN

one-hybrid fitness for binding NBS DNA, 0.339:
RSLR
